# Assay results published in the supplement of paper PMC8728848.
# This is one part of the list.
# Assays:
# Assay in all cases: glycan array binding signal (z-score within array); higher = stronger binding
# Conditions in all cases: glycan notation: IUPAC condensed, linker removed
# Gal(a1-3)Gal = target: Gal(a1-3)Gal
# How it was run: (§1)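 The Consortium for Functional Glycomics database supplied 3228 glycan arrays, of which those lacking an available protein sequence were dropped. The binding signal, a within-array Z-score, was averaged across arrays of the same protein sequence and across linkers. Negative scores can be read as non-binding.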
# Gal(a1-3)Gal(b1-3)GlcNAc = target: Gal(a1-3)Gal(b1-3)GlcNAc
# How it was run: as §1
# [1] = target: Gal(a1-3)Gal(b1-3)GlcNAc(b1-2)Man
# How it was run: as §1
# [2] = target: Gal(a1-3)Gal(b1-3)GlcNAc(b1-2)Man(a1-3)[Gal(a1-3)Gal(b1-3)GlcNAc(b1-2)Man(a1-6)]Man(b1-4)GlcNAc(b1-4)GlcNAc
# How it was run: as §1
# [3] = target: Gal(a1-3)Gal(b1-3)GlcNAc(b1-3)GalNAc
# How it was run: as §1
# [4] = target: Gal(a1-3)Gal(b1-3)GlcNAc(b1-6)GalNAc
# How it was run: as §1
# [5] = target: Gal(a1-3)Gal(b1-3)[Fuc(a1-4)]GlcNAc(b1-2)Man(a1-3)[Gal(a1-3)Gal(b1-3)[Fuc(a1-4)]GlcNAc(b1-2)Man(a1-6)]Man(b1-4)GlcNAc(b1-4)GlcNAc
# How it was run: as §1
# Gal(a1-3)Gal(b1-4)Glc = target: Gal(a1-3)Gal(b1-4)Glc
# How it was run: as §1
# Gal(a1-3)Gal(b1-4)GlcNAc = target: Gal(a1-3)Gal(b1-4)GlcNAc
# How it was run: as §1
# [6] = target: Gal(a1-3)Gal(b1-4)GlcNAc(b1-2)Man
# How it was run: as §1
# [7] = target: Gal(a1-3)Gal(b1-4)GlcNAc(b1-2)Man(a1-3)[Gal(a1-3)Gal(b1-4)GlcNAc(b1-2)Man(a1-6)]Man(b1-4)GlcNAc(b1-4)GlcNAc
# How it was run: as §1
# [8] = target: Gal(a1-3)Gal(b1-4)GlcNAc(b1-3)GalNAc
# How it was run: as §1
# [9] = target: Gal(a1-3)Gal(b1-4)GlcNAc(b1-6)GalNAc
# How it was run: as §1
# [10] = target: Gal(a1-3)Gal(b1-4)[Fuc(a1-3)]GlcNAc
# How it was run: as §1
# [11] = target: Gal(a1-3)Gal(b1-4)[Fuc(a1-3)]GlcNAc(b1-2)Man(a1-3)[Gal(a1-3)Gal(b1-4)[Fuc(a1-3)]GlcNAc(b1-2)Man(a1-6)]Man(b1-4)GlcNAc(b1-4)GlcNAc
# How it was run: as §1
# Gal(a1-3)GalNAc = target: Gal(a1-3)GalNAc
# How it was run: as §1
# [12] = target: Gal(a1-3)[Gal(a1-4)]Gal(b1-4)GlcNAc
# How it was run: as §1
# [13] = target: Gal(a1-4)Gal(b1-3)GlcNAc(b1-2)Man(a1-3)[Gal(a1-4)Gal(b1-3)GlcNAc(b1-2)Man(a1-6)]Man(b1-4)GlcNAc(b1-4)GlcNAc
# How it was run: as §1
# Gal(a1-4)Gal(b1-4)Glc = target: Gal(a1-4)Gal(b1-4)Glc
# How it was run: as §1
# Gal(a1-4)Gal(b1-4)GlcNAc = target: Gal(a1-4)Gal(b1-4)GlcNAc
# How it was run: as §1
# [14] = target: Gal(a1-4)Gal(b1-4)GlcNAc(b1-2)Man(a1-3)[Gal(a1-4)Gal(b1-4)GlcNAc(b1-2)Man(a1-6)]Man(b1-4)GlcNAc(b1-4)GlcNAc
# How it was run: as §1
# [15] = target: Gal(a1-4)Gal(b1-4)GlcNAc(b1-3)Gal(b1-4)Glc
# How it was run: as §1
# Gal(a1-4)GlcNAc = target: Gal(a1-4)GlcNAc
# How it was run: as §1
# Gal(a1-6)Glc = target: Gal(a1-6)Glc
# How it was run: as §1
# Gal(b1-2)Gal = target: Gal(b1-2)Gal
# How it was run: as §1
# Gal(b1-3)Gal = target: Gal(b1-3)Gal
# How it was run: as §1
# Gal(b1-3)Gal(b1-4)GlcNAc = target: Gal(b1-3)Gal(b1-4)GlcNAc
# How it was run: as §1
# Gal(b1-3)GalNAc = target: Gal(b1-3)GalNAc
# How it was run: as §1
# [16] = target: Gal(b1-3)GalNAc(a1-3)[Fuc(a1-2)]Gal(b1-4)Glc
# How it was run: as §1
# [17] = target: Gal(b1-3)GalNAc(a1-3)[Fuc(a1-2)]Gal(b1-4)GlcNAc
# How it was run: as §1
# Gal(b1-3)GalNAc(b1-3)Gal = target: Gal(b1-3)GalNAc(b1-3)Gal
# How it was run: as §1
# [18] = target: Gal(b1-3)GalNAc(b1-3)Gal(a1-4)Gal(b1-4)Glc
# How it was run: as §1
# [19] = target: Gal(b1-3)GalNAc(b1-4)Gal(b1-4)Glc
# How it was run: as §1
# [20] = target: Gal(b1-3)GalNAc(b1-4)[Neu5Ac(a2-3)]Gal(b1-4)Glc
# How it was run: as §1
# Gal(b1-3)GlcNAc = target: Gal(b1-3)GlcNAc
# How it was run: as §1
# [21] = target: Gal(b1-3)GlcNAc(a1-3)Gal(b1-4)GlcNAc
# How it was run: as §1
# [22] = target: Gal(b1-3)GlcNAc(a1-6)Gal(b1-4)GlcNAc
# How it was run: as §1
# Gal(b1-3)GlcNAc(b1-2)Man = target: Gal(b1-3)GlcNAc(b1-2)Man
# How it was run: as §1
binder,measurement,setting,value
DrGal9 (Danio rerio) (protein) MAFYQQPPYYNPRIPFSGPIQGGLQDGKSIIISGRVLPGANRFHVNLQCGSHSEANVALHFNPRYEDTDYVVNNSYLNRTWGSEERKYESPFAQGQTFTLQILVAQDKYKISTNGRHFMDYKHRIPFTQVDTVAVEGMVEVNSVAFQNPAGFIPPQAGYAPQYAVPPGCGFPAFPSAPNYTIPHKTVMNGGLHPGKNIVINGVVNPNAKSIIFNLCYRSGIAFHYNPRFDENVVVRNTNQMEKWGAEERFGGLPFHKGQPFQVTISCNPQHYNVFVNGKQEHTYKHRYTKLNDIDILEICGDLQLTSVQA,glycan array binding signal (z-score),Gal(a1-3)Gal,-0.376
same,glycan array binding signal (z-score),Gal(a1-3)Gal(b1-3)GlcNAc,-0.298
same,glycan array binding signal (z-score),[1],0.337
same,glycan array binding signal (z-score),[2],-0.374
same,glycan array binding signal (z-score),[3],-0.365
same,glycan array binding signal (z-score),[4],-0.113
same,glycan array binding signal (z-score),[5],-0.296
same,glycan array binding signal (z-score),Gal(a1-3)Gal(b1-4)Glc,-0.218
same,glycan array binding signal (z-score),Gal(a1-3)Gal(b1-4)GlcNAc,-0.204
same,glycan array binding signal (z-score),[6],-0.167
same,glycan array binding signal (z-score),[7],2.89
same,glycan array binding signal (z-score),[8],-0.124
same,glycan array binding signal (z-score),[9],-0.342
same,glycan array binding signal (z-score),[10],-0.399
same,glycan array binding signal (z-score),[11],-0.323
same,glycan array binding signal (z-score),Gal(a1-3)GalNAc,-0.367
same,glycan array binding signal (z-score),[12],-0.303
same,glycan array binding signal (z-score),[13],-0.382
same,glycan array binding signal (z-score),Gal(a1-4)Gal(b1-4)Glc,-0.356
same,glycan array binding signal (z-score),Gal(a1-4)Gal(b1-4)GlcNAc,-0.318
same,glycan array binding signal (z-score),[14],-0.247
same,glycan array binding signal (z-score),[15],-0.133
same,glycan array binding signal (z-score),Gal(a1-4)GlcNAc,-0.383
same,glycan array binding signal (z-score),Gal(a1-6)Glc,-0.411
same,glycan array binding signal (z-score),Gal(b1-2)Gal,-0.389
same,glycan array binding signal (z-score),Gal(b1-3)Gal,-0.35
same,glycan array binding signal (z-score),Gal(b1-3)Gal(b1-4)GlcNAc,0.98
same,glycan array binding signal (z-score),Gal(b1-3)GalNAc,-0.351
same,glycan array binding signal (z-score),[16],-0.238
same,glycan array binding signal (z-score),[17],-0.169
same,glycan array binding signal (z-score),Gal(b1-3)GalNAc(b1-3)Gal,0.047
same,glycan array binding signal (z-score),[18],-0.115
same,glycan array binding signal (z-score),[19],-0.117
same,glycan array binding signal (z-score),[20],-0.157
same,glycan array binding signal (z-score),Gal(b1-3)GlcNAc,-0.266
same,glycan array binding signal (z-score),[21],-0.244
same,glycan array binding signal (z-score),[22],-0.319
same,glycan array binding signal (z-score),Gal(b1-3)GlcNAc(b1-2)Man,-0.277
